# Assay results: PMC4336329 (PLoS ONE, 2015)
# Screen size: about 310,000 compounds; about 14,000 (4.5%) showed an effect of 50% or more. Effects have a minus sign here. The list shows a part of the results.
# Biological target: human ether-à-go-go-related gene (hERG) potassium channel (human, UniProt Q12809)
# Experiment: primary screen, population patch clamp on CHO cells stably expressing hERG
# 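Note: peak tail current of the secondary pulse compared with the same well before compound.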
# human ether-à-go-go-related gene (hERG) potassium channel, sequence (Q12809 whole entry, looked up): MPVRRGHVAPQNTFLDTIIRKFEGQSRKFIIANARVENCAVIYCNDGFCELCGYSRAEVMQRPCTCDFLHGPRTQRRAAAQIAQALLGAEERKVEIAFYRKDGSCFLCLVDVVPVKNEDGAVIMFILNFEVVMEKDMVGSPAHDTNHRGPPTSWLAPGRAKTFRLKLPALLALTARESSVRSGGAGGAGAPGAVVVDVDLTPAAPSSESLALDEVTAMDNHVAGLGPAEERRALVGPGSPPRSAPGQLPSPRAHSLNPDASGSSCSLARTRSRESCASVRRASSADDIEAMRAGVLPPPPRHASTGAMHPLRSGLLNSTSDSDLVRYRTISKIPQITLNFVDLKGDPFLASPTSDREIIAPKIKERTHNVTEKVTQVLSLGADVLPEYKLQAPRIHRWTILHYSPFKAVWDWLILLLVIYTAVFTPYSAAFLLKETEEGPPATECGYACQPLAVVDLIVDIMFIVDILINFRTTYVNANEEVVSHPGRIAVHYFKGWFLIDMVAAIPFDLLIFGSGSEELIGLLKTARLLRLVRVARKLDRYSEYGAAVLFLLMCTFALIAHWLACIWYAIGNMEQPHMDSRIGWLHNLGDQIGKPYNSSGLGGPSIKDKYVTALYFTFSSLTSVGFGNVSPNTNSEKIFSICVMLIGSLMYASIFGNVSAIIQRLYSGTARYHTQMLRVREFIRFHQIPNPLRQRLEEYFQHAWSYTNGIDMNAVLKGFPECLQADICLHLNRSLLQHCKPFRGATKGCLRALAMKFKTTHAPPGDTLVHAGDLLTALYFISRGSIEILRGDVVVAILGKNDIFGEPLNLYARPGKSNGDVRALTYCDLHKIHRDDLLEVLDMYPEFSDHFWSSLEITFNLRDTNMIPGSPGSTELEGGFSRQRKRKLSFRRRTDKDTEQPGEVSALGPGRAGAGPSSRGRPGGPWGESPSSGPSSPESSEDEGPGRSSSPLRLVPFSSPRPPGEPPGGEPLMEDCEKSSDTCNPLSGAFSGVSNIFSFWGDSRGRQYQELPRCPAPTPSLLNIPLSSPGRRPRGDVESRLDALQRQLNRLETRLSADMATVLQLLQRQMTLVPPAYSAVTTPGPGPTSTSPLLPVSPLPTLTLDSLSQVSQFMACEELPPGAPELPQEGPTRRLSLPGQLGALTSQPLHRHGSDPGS
row,Structure (SMILES),"hERG current change (%, negative = inhibition) at 10uM [%]"
1,O=C(CNC(=O)c1cccs1)OCC(=O)c1ccccc1,8.55
2,Cc1cc(C)cc(OC(C)C(=O)Nc2ccccc2C(=O)NCc2cccnc2)c1 (stereo not shown),-5.28
3,CC(CCc1ccccc1)NC(=O)CN1CCSc2ccccc21 (stereo not shown),15.1
4,CC(=O)Nc1cccc(NC(=O)C2CCN(C(=O)c3ccco3)CC2)c1,21.8
5,CSCCNC(C)=O,11.1
6,C=CCn1c(=O)c2ccccc2n2c(SCC(=O)Nc3sc(C)c(CC)c3C(=O)OCC)nnc12,6.96
7,COC(=O)c1ccc(COC(=O)c2[nH]c(C)c(C(C)=O)c2C)o1,21.6
8,CC1(C)C2([N+](=O)[O-])CNCC1([N+](=O)[O-])CNC2,4.33
9,Cc1nc(-c2ccc(Cl)cc2)sc1C1(C)CC(c2cccc(F)c2)=NO1 (stereo not shown),13.4
10,O=C(OC(C(=O)NCC1CCCO1)c1ccc(F)cc1)c1cccs1 (stereo not shown),-7.96
11,Cc1cc(=O)[nH]c(N/N=C/c2ccco2)n1,13.9
12,O=C(COC(=O)c1n[nH]c2ccccc12)NC(=O)NC12CC3CC(CC(C3)C1)C2,0.441
13,Cc1cccc(C)c1NC(=O)c1c(C)nn(-c2ccccc2)c1Cl,-17.3
14,CCOC(=O)C1=C(C)OC(N)=C(C#N)C1c1ccc(C)o1 (stereo not shown),2.2
15,NS(=O)(=O)c1ccc(CCNS(=O)(=O)c2ccc(Cl)nc2)cc1,9.73
16,Cc1ccc(O)c(NC(=O)c2cc(-c3ccccc3Cl)on2)c1,20.3
17,COC(=O)c1c[nH]n2c(=O)c(Cl)c(C)nc12,13.5
18,O=C(Nc1ccc(Cl)cc1)Nc1ccc(-c2cnco2)cc1,11.1
19,Cc1ccc(NC(=O)COc2cccnc2[N+](=O)[O-])cc1S(=O)(=O)N1CCCCC1,-1.88
20,CC(=O)Nc1cccc(C(=O)OC(C)C(=O)NC2CCCc3ccccc32)c1 (stereo not shown),4.5
21,O=C(c1ccc(Cn2c(=S)[nH]c3ccccc3c2=O)cc1)N1CCN(c2ccccn2)CC1,8.99
22,COc1ccc(C2C3=C(Nc4ncnn42)c2ccccc2CC3)cc1OC (stereo not shown),0.84

row,Structure (SMILES),"hERG current change (%, negative = inhibition) at 10uM [%]"
1,Cc1ccc(NC(=O)c2ccco2)c([N+](=O)[O-])c1,8.13
2,COC(=O)c1ccc(-c2sc3nc(N4CCOCC4)c4c(c3c2N)CC(C)(C)OC4)o1,-3.26
3,C=COC(=O)CSc1nc(-c2cccs2)ccc1C#N,15.3
4,COCC(C)n1c(C)cc(C(=O)COC(=O)c2oc3ccccc3c2C)c1C (stereo not shown),-19.6
5,O=C(O)c1cc(NCc2ccc(F)cc2)ccc1N1CCOCC1,-5.19
6,CCOC(=O)C1CCN(Cc2ccc(C(=O)OC)cc2)CC1,-14.6
7,CN=C1c2ccccc2CN1c1cccc(C(=O)OC)c1,-13.8
8,Cc1sc2nc(CN(C(=O)NC3CCCCC3)C3CCCCC3)[nH]c(=O)c2c1C,-11.2
9,COc1ccc(-c2csc(Cc3nc(O)cs3)n2)cc1,23
10,O=C1NCCCc2nc(Oc3ccccc3)sc21,0.239
11,O=C(O)CSc1nnc(Cc2ccccc2)n1-c1ccccc1,5.74
12,CCOC(=O)c1ccc(NC(=O)C2CCN(C(=O)c3ccc(OC)c(OC)c3)CC2)cc1,-58.7
13,COc1cc(OC)cc(-c2c(C#Cc3ccsc3)c3cc(-c4ccc5cc[nH]c5c4)ccc3n2C)c1,11.6
14,Cc1nc(CCNC(=O)C2CCC(=O)N(CCc3cccc(F)c3)C2)sc1C (stereo not shown),7.45
15,Cc1ccc2nc3c(cc2c1)c(NS(=O)(=O)c1ccccc1)nn3CC(C)C,-1.67
16,O=C(O)CC(C(=O)O)N1C(=O)/C(=C/C=C/c2ccco2)SC1=S (stereo not shown),13.2
17,Fc1ccc(-c2csc3ncnc(Cl)c23)cc1,-4.31
18,Cl.OCCN(CCO)CC(O)CN(c1ccccc1)c1ccccc1 (stereo not shown),-14.6
19,O=C(NNc1ccccc1Cl)C(O)(c1cccc(C(F)(F)F)c1)c1cccc(C(F)(F)F)c1,11.2
20,COC(=O)[C@@]12CCCN1[C@H](c1ccc(-c3ccccc3)cc1)[C@@H]1C(=O)N(C)C(=O)[C@@H]12.O=C(O)C(F)(F)F,-6.67
21,COc1ccc(/C(O)=C2\C(=O)C(=O)N(c3cc(C)on3)C2c2ccccc2OC)cc1 (stereo not shown),12.6
22,O=C(Nc1ccncc1)C1COc2ccccc2O1 (stereo not shown),-6.92

row,Structure (SMILES),"hERG current change (%, negative = inhibition) at 10uM [%]"
1,C=CCSc1nnc(Cn2c(=O)sc3ccccc32)n1C,-15.3
2,CCCCN(CCCC)C(=O)c1ccccc1NC(=O)CN1C(=O)c2ccccc2C1=O,-15.4
3,CC(C)CC(=O)Nc1ccccc1-c1nnn(CC(=O)N2CCc3ccccc3C2)n1,-37.3
4,COc1ccc(N/C=C2/Sc3ccccc3NC2=O)cc1,13.8
5,C=CCC1(CC=C)CCCN1C(=O)CC1C(=O)NCCN1Cc1ccccc1OC (stereo not shown),-14.7
6,COc1cc(NC(=O)c2cc3nc(C)cc(C)n3n2)c(OC)cc1Cl,-2.77
7,FC(F)(F)c1cc(CCN2C(=S)NC[C@@H]2CC2CCCCC2)cc(C(F)(F)F)c1,11.5
8,CC(C)(C)c1o[nH]c(=O)c1CC(N)C(=O)O (stereo not shown),17.5
9,Fc1cccc(NC(=S)NCCc2ccccc2)c1,7.95
10,O=C(NCCCN1CCOCC1)c1ccc2c(c1)N(Cc1ccc(F)cc1)CCS2,-31.7
11,Cl.OC12ONC(c3ccccn3)C1N1CCC2CC1 (stereo not shown),17.4
12,O=C(N/N=C/c1c[nH]c2ccccc12)c1cc(-c2ccc3ccccc3c2)n[nH]1,13
13,NC(=O)COC(=O)c1ccc2c(c1)S(=O)(=O)N=C1CCCCCN12,2.65
14,CCOc1ccccc1/C=N/NC(=O)c1nnn(-c2nonc2N)c1CN1CCCC1,25.1
15,OC(CNCc1ccccc1F)COc1cccc2ccccc12 (stereo not shown),-19.7
16,CCc1ccc(-c2ccc3nnc(SCC(=O)NCC4CCCO4)n3n2)cc1 (stereo not shown),-48.7
17,C=CCn1c(Cc2ccccc2)nnc1SCc1nc2ccccc2c(=O)[nH]1,5.07
18,O=C1Nc2ccccc2N(O)N1c1cc(-c2cccc(Cl)c2)no1,8.12
19,Cc1oc(-c2ccccc2Cl)nc1CN1C(=O)CN=C(c2ccccc2)c2ccccc21,-1.8
20,CCCCc1c(O)nc(SCC(=O)NCCc2ccc(OC)c(OC)c2)[nH]c1=O,-0.0252
21,CCOCCn1c(N2CCN(c3ccccc3)CC2)nc2c1c(=O)[nH]c(=O)n2C,-23.1
22,Cc1[nH]c2ccccc2c1C(c1ccncc1)N1CCCCC1 (stereo not shown),-1.75

row,Structure (SMILES),"hERG current change (%, negative = inhibition) at 10uM [%]"
1,NC(=O)c1ccccc1,15
2,Cc1ccc(C(=O)Nc2ccc(Nc3ccccc3)cc2)cc1C,17.7
3,Cc1ccc(S(=O)(=O)N2CCCC(C(=O)Nc3ccc(NC(=O)c4ccccn4)cc3)C2)cc1 (stereo not shown),11.8
4,CCOC(=O)C1=C(O)/C(=C\c2cccs2)N=C1C,-5.73
5,CCOc1cc2[nH]c(=O)n(CCCC(=O)NCc3ccco3)c(=O)c2cc1OCC,5.83
6,CCOc1cc(CNCCc2ccc(S(N)(=O)=O)cc2)ccc1OCc1ccccc1.Cl,-55.9
7,COc1ccc2nc(SCCN(C)C)[nH]c2c1.Cl,12.3
8,CN(C)c1nc(NC(C)(C)C)nc(SCC(=O)Nc2ccccc2)n1,31.4
9,CN(c1ccccc1)S(=O)(=O)c1ccc(C(=O)OCC(=O)N2CCOCC2)cc1,3.03
10,O=C(C[n+]1ccc(/C=N/O)cc1)NC(=O)Nc1ccccc1,10.5
11,Cc1ccccc1OCC(=O)N/N=C/c1ccc(N2CCOCC2)o1,-2.25
12,O=C(NCCCNC(=O)c1ccco1)c1ccc(Cl)cc1,-8.11
13,O=C(COC(=O)Cn1cnc2ccccc2c1=O)Nc1ccc(Cl)c(C(F)(F)F)c1,2.58
14,Cc1ccccc1NC(=O)C(Cl)=C(Cl)Cl,14.7
15,Cc1ccc(S(=O)(=O)NC(CC(C)C)C(=O)NCC(C)(C)N2CCOCC2)cc1 (stereo not shown),11.6
16,CC(C)CCN(C(=O)CNC(=O)c1ccco1)C(C(=O)NC1CCCCC1)c1ccco1 (stereo not shown),-7.94
17,COc1ccc([C@@H]2CC=C(C(=O)O)[C@H](c3ccccc3)N2S(=O)(=O)c2ccc(C)cc2)cc1OC,11.2
18,COc1cc(Br)c(CN2C(=O)NC3(CCCCCC3)C2=O)cc1OC,18.1
19,CC(=O)Nc1ccc(C(=O)OCc2ccc(Cl)cc2)cc1,-5.91
20,CCn1cc(CNC(=O)/C=C/c2ccc([N+](=O)[O-])cc2)cn1,-33.6
21,COc1ccc(C(=O)CSc2ccc(-c3ccco3)nn2)cc1,-78.1
22,CCOC(=O)c1nn(-c2ccc(F)cc2)c(=O)c(C#N)c1C,33
